How the values of the data set were obtained: 10 μM of standard solution is prepared in DMSO, 5 μM of working solution is prepared in DMSO from the standard solution. 495 μL of Buffer (1.2, 2.2, 4.5, 7.4 and 10.2 pH) is transferred in a pre labelled micro centrifuge tube. 5 μL of working solution (5 μM) is added in to the test system. Samples are Vortexed in a table top vortexer for 5 min and centrifuged at 14000 RPM for 5 minutes; supernatant samples are subjected to HPLC analysis.
In the case of `CC1(C)CCN(NC(=O)c2cc3c(Cl)cc(Cl)cc3[nH]2)CC1` [Compound (h), 4,6-dichloro-N-(4,4-dimethylpiperidin-1-yl)-1H-indole-2-carboxamide], the “aqueous solubility at the acidic pH (in words)” value was “good aqueous solubility”. For the compound `CC1(C)CCN(NC(=O)c2cc3c(F)cc(F)cc3[nH]2)CC1` [Compound (l), N-(4,4-dimethylpiperidin-1-yl)-4,6-difluoro-1H-indole-2-carboxamide], the “aqueous solubility at the acidic pH (in words)” value is recorded as “good aqueous solubility”. As for `CC1(C)CCN(NC(=O)c2cc3c(Cl)cc(Cl)cc3[nH]2)CC1.Cl` [Compound (n), 4,6-dichloro-N-(4,4-dimethylpiperidin-1-yl)-1H-indole-2-carboxamide hydrochloride], the entry is “good aqueous solubility”.

For the origin of these results see US11718633B2, “Indole compounds, process for the preparation and use thereof” (priority 2018, dated 2023).
